# Test results taken from PMC4336329 (PLoS ONE, 2015).
# In all, about 310,000 compounds went through this assay and about 14,000 (4.5%) showed an effect of 50% or more. The effect is printed as a negative number. The list shows a part of the results.
# Molecular target: human ether-à-go-go-related gene (hERG) potassium channel (human, UniProt Q12809)
# Test: primary screen, population patch clamp on CHO cells stably expressing hERG
# 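Also: peak tail current of the secondary pulse compared with the same well before compound.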
# human ether-à-go-go-related gene (hERG) potassium channel, sequence (Q12809 whole entry, looked up): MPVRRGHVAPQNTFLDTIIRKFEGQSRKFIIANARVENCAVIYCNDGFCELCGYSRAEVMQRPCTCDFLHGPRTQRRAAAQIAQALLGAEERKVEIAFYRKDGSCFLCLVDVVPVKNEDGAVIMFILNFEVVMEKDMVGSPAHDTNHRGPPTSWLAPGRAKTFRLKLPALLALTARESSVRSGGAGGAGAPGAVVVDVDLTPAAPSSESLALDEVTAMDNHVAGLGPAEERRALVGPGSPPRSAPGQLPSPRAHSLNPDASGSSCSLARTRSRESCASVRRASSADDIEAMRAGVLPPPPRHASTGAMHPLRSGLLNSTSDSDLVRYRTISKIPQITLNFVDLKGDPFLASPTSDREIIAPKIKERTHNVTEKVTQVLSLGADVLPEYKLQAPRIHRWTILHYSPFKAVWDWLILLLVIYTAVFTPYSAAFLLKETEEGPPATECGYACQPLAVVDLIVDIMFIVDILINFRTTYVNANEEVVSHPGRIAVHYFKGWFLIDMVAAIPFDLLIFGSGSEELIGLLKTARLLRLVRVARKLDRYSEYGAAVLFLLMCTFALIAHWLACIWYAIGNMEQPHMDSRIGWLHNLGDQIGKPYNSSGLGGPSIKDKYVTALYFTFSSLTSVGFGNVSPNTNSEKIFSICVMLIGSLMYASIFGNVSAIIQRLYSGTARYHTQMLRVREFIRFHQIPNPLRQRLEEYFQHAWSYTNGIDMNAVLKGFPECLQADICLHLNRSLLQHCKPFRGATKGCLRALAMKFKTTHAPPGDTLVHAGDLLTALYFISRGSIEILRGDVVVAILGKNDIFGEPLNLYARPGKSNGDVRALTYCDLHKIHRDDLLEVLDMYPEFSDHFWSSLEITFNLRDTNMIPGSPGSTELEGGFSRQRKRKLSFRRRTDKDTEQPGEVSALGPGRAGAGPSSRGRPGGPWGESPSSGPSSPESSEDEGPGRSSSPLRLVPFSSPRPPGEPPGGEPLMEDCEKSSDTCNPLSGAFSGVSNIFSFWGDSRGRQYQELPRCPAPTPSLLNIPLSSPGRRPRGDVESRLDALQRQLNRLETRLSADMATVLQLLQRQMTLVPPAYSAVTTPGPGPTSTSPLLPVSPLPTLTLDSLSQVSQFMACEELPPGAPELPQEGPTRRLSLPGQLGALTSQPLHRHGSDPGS
row,Structure (SMILES),"hERG current change (%, negative = inhibition) at 10uM [%]"
1,COc1cc(-c2cc(C(=O)Nc3ccc(O)cc3)c3ccccc3n2)cc(OC)c1OC,-25.8
2,CCCC(C)C(=O)Nc1ccc(F)c(Cl)c1 (centres unmarked),-11.3
3,COc1ccnc(NCc2cccc(C(F)(F)F)c2)c1C#N,3.7
4,COc1cc(NC(=O)CSc2nnc(Cn3nnc4ccccc43)n2C)cc(OC)c1,-8.71
5,O=C(CNS(=O)(=O)c1ccccc1)Nc1ccc(F)cc1F,7.81
6,COc1ccc(CC(=O)OCc2nnc(C3COc4ccccc4O3)o2)cc1OC (centres unmarked),3.23
7,Cc1[nH]c2ccccc2c1C(=O)C(=O)NCCOc1ccccc1,1.04
8,Cc1cccc(S(=O)(=O)NCCNS(=O)(=O)c2cccc(C)c2)c1,15.2
9,Cc1ccc(C)c(/C=N/Nc2nc3ccccc3c(=O)n2O)c1,-0.538
10,COc1cccc(NC(=O)CCS(=O)(=O)c2ccc(Br)cc2)c1,-10.6
11,O=C(CSc1nc2ccccc2c(=O)n1Cc1ccco1)NCc1ccccc1,-29.3
12,COc1ccc(-c2nsc3c(N4CCN(C(=O)c5ccco5)CC4)ncnc23)cc1,10.9
13,COc1cc(Br)cc(-c2nc3c(c(=O)[nH]c(=O)n3Cc3ccccc3)n2C)c1O,-4.1
14,CCN(CC)c1ccc2cc(C(N)=O)/c(=N\NC(=O)c3ccncc3)oc2c1,-16.9
15,Nc1nnc(CCS(=O)(=O)c2ccc(Br)cc2)s1,21.1
16,CC(=O)Oc1c(C)c(C)c2c(c1C)CC[C@@](C)(CCC[C@H](C)CCC[C@H](C)CCCC(C)C)O2,7.93
17,Cc1noc(C)c1S(=O)(=O)Nc1ccc(C(=O)NC2CCCCC2)cc1,0.971
18,COc1cc(OC)c(/C=N/n2c(C)nnc2C)c(OC)c1,6.85
19,Nc1c(C(=O)c2ccc(Cl)cc2)oc2ccccc12,16.6
20,Cn1nccc1NC(=O)COCC(=O)O,3.82
21,CCCCn1c2nc3ccccc3nc2c2c(=O)n(C(C)CC)cnc21 (centres unmarked),-18.2
22,O=C(Nc1ccccc1N1CCOCC1)c1cccs1,-11.9
23,CCn1cc(C(=O)NCc2ccc(Cl)cc2)c(=O)c2cc(S(=O)(=O)N(C)C)ccc21,-4.34

row,Structure (SMILES),"hERG current change (%, negative = inhibition) at 10uM [%]"
1,CCN1CCN(C(c2cc(OC)ccc2OC)c2nnnn2Cc2ccccc2)CC1.Cl (centres unmarked),-18.9
2,Cc1c(Cl)c([N+](=O)[O-])nn1CC(=O)NCc1cccs1,3.07
3,O=C(COC(=O)C1(c2cccc(F)c2)CCCC1)NCc1ccc2c(c1)OCO2,-10.2
4,Cc1nc2ccn(Cc3ccccc3)c(=O)c2cc1C(=O)N1CCN(c2ccccc2)CC1,-74
5,CCCOC(=O)C1[C@H]2C(=O)N(Cc3ccco3)C[C@]23C=C[C@H]1O3 (some centres unmarked),9.97
6,O=C(O)CCCCCN1C(=O)C(O)=C(C(=O)/C=C/c2ccccc2)C1c1ccccc1[N+](=O)[O-] (centres unmarked),15.6
7,COc1ccc(NC(=O)CCc2c(C)nn(-c3ccc(N4CCOCC4)nn3)c2C)cc1,-1.21
8,CCC/C(O)=C1\C(=O)CCCC1=NCCc1c(C)[nH]c2ccc(C)cc12,-4.82
9,CCOC(=O)c1ccc(-c2ccc3c(c2)CCC3)nc1C,12.6
10,CCc1c(C)nc2c(C#N)c[nH]n2c1=O,31.2
11,COc1ccccc1NC(=O)CSc1ncnc2c1oc1ccccc12,12.2
12,CCS(=O)(=O)c1ccc2oc(SCC(=O)NCc3ccccc3)nc2c1,-19.9
13,N#CC1=C(N)Oc2cc(N)ccc2C1C1CCCCC1 (centres unmarked),-23.6
14,CCCCCCC(=O)N(O)C1CC(=O)N(c2ccc(C)cc2)C1=O (centres unmarked),-8.51
15,N#Cc1ccc(COc2cccnc2[N+](=O)[O-])cc1,-26.3
16,N#C/C(=N\Nc1ccc(Br)cc1)C(=N)N1CCOCC1,-68.9
17,CCCNc1nc(NCC)nc(OC)n1,26
18,O=C(Nc1ccc(F)c([N+](=O)[O-])c1)N1C[C@H]2C[C@@H](C1)c1cccc(=O)n1C2,25.7
19,CN1CCN(C(=O)c2ccc(N(Cc3ccccc3Cl)S(C)(=O)=O)cc2)CC1,2.74
20,CCOc1cc(C(c2c(C)[nH][nH]c2=O)c2c(C)[nH][nH]c2=O)cc([N+](=O)[O-])c1O,19
21,O=C(CCS(=O)(=O)c1ccccc1)Nc1nnc(C(F)(F)F)s1,9.6
22,COC(=O)C1=C(NC(=O)c2ccccc2[N+](=O)[O-])CCS1,6.08
23,CCO[C@H]1OC(C(=O)O)=C[C@@H](C(C)(C)C)[C@@H]1CCCO,7.12

row,Structure (SMILES),"hERG current change (%, negative = inhibition) at 10uM [%]"
1,Cc1nn(CC(=O)Nc2nnc(CC(=O)N3CCCC3)s2)c(=O)c2ccccc12,14.7
2,CC(C)NCc1cc(Br)ccc1OCc1ccccc1.Cl,-61.8
3,Cc1c(C)c2ccc(OCC(=O)Nc3ccccn3)c(C)c2oc1=O,21.7
4,CCOc1cccc(CN2CCCC(N3CCc4ccccc4C3)C2)c1O (centres unmarked),-52.9
5,Cc1ccc(OCC(=O)Nc2cccc(S(=O)(=O)NC3=NCCCCC3)c2)cc1C,-8.26
6,COc1ccc(NC(=O)Nc2c[nH]c(=O)[nH]c2=O)cc1,17.1
7,CC[C@H](C)Cc1cn([C@@H](CCCCN)C(=O)NCCCCCCCCCCC(=O)N2CCNCC2)nn1,17.3
8,CCCN(C(=O)Cn1ncc2c([nH]c3ccccc32)c1=O)c1ccccc1C,15.3
9,CCN1C(=O)N[C@@H](c2cccc(C(F)(F)F)c2)C(C(=O)OC)=C1C,6.24
10,COc1ccc(NC(=O)N2CCCC2C(=O)Nc2cccc(C)c2C)cc1 (centres unmarked),4.86
11,CCOC(=O)C1=C(CC)OC(N)=C(C#N)C1c1cccs1 (centres unmarked),-0.872
12,CC(O)CNc1cnccn1 (centres unmarked),8.76
13,CC(OC(=O)c1ccccc1NCCO)C(=O)NC1CCCCC1C (centres unmarked),-7.74
14,CCCc1n(CC(O)COCC2CC=CCC2)c2ccccc2[n+]1C.[I-] (centres unmarked),-42.4
15,CCOc1ccc(NC(=O)CS(=O)CC(=O)NC2CCCc3ccccc32)cc1 (centres unmarked),14
16,COc1cc(NC(=O)C/C(C)=N/NC(=O)C2CCCCC2)c(OC)cc1Cl,9.28
17,CC1CCCC(NS(=O)(=O)c2ccc3c(c2)OCCO3)C1C (centres unmarked),-20.9
18,Cc1ccc2nc3c(cc(C(=O)NCC4CCCO4)c(=N)n3CCCOC(C)C)c(=O)n2c1 (centres unmarked),-71.8
19,COc1ccccc1NC(=O)C1CCN(C(=O)NCc2ccccc2)CC1,-2.19
20,COC(=O)CSc1cc([N+](=O)[O-])cc2c1c(C1OCCO1)nn2-c1ccccc1,-5.4
21,O=C(NC1CCCCC1)C(c1ccco1)N(C(=O)c1csnn1)c1ccc(Cl)cc1 (centres unmarked),-27.8
22,c1ccc(Cn2ccnc2)cc1,19.6
23,COc1ccccc1OCCNC(=O)C1CC(=O)N(c2ccccc2OC)C1 (centres unmarked),1.49

row,Structure (SMILES),"hERG current change (%, negative = inhibition) at 10uM [%]"
1,COc1ccc(-c2csc(Nc3ccccc3)n2)cc1,14
2,CCc1c(C(=O)Nc2ccc(C)c(C)c2)[nH]c(C)c1C(C)=O,11.1
3,CCOP(=O)(O)c1cccc(OCCOCCOc2cccc(P(=O)(O)OCC)c2)c1,4.45
4,COc1cc([N+](=O)[O-])ccc1N,14.2
5,O=[N+]([O-])c1cc2c(cc1C=Nc1ccccc1)OCO2,1.04
6,O=C1N=NC2=C1c1c3ccccc3c(O)n1CC2,3.49
7,Cc1nn(Cc2c(F)cccc2Cl)c(=O)c2ccccc12,14.4
8,COc1ccc2c(c1)c(CC[NH3+])c(C)n2Cc1ccccc1.[Cl-],-2.4
9,COc1ccc(N=c2oc3cc(O)ccc3cc2C(=O)Nc2ccccn2)cc1OC,12.9
10,Cc1cc(C)cc(NS(=O)(=O)c2ccc(NC(=S)NC(=O)c3cccs3)cc2)c1,-0.549
11,O=c1c(Cl)c(N2CCN(c3ccc(F)cc3)CC2)cnn1C12CC3CC(CC(C3)C1)C2,-34.5
12,c1ccc(CCCNc2ncccn2)cc1,7.93
13,CCOc1ccc(CCNC(=O)c2[nH]c(C)c(C(C)=O)c2C)cc1OCC,12.5
14,Cc1ccccc1CNC(=O)c1ccc(Cl)c([N+](=O)[O-])c1,10.3
15,Cc1ccc(N(CC(=O)Nc2ccc(S(=O)(=O)N3CCOCC3)cc2)S(C)(=O)=O)cc1C,-4.58
16,O=C(Nc1cc(Cl)ccc1N1CCOCC1)c1cccnc1Cl,1.8
17,Cc1ccc(C)c(N(C(=O)Cn2nnc3ccccc32)C(C(=O)NC(C)(C)C)c2ccsc2)c1 (centres unmarked),1.06
18,CN1CCN(/C=N/c2c(C#N)cnn2Cc2ccccc2)CC1,-19.2
19,Cc1ccc2nc3n(c(=O)c2c1)CCCCC3,10
20,CC(C)OCCCNS(=O)(=O)c1ccc2ccccc2c1,-13.4
